Hit rate of the full screen: of about 1,400 compounds, about 25 (2%) were called active. The shares of active, inactive and inconclusive entries below differ from those in the screen. The call rests on the fitted dose curve; in most records, active means well fitted inhibition curve with a large enough effect; inconclusive means small, poorly fitted or top-dose-only effect; inactive means flat fitted curve, though single readings scatter. Where the call is inconclusive, the potency comes from a doubtful curve fit.
Assay: Nrf2 qHTS screen for inhibitors: A549 ARE-Fluc Cytotoxicity Counterscreen for Hit Validation
Settings: A549 ARE-Fluc cells; series mostly up to 46.1 µM
Description: Nrf2 is a transcription factor that maintains cellular redox homoestasis and protects cells from xenobiotics. Nrf2 binds to the antioxidant response element (ARE) to induce gene expression of a broad spectrum of genes that encode for antioxidants. […] Finding a small molecule that act as an inhibitor of Nrf2 function would represent a novel therapeutic target that could lead to improvement in survival of patients undergoing chemo- and/or radio- therapy.
In collaboration with the Biswal laboratory, a cell based, luminescence assay (BugLite) was developed to detect the Nrf2 activity using the A549 ARE_Fluc cells (AID 504648). This assay was coupled with a fluorescence based (CellTiter Fluor) cytotoxicity assay to identify and exclude toxic compounds. This coupled assay was used to evaluate selected compounds for hit validation. The data herein is the result of the CellTiter Fluor assay where decrease in fluorescence signal = cytotoxicity. Inactivity is the desired outcome for this assay.
NIH Chemical Genomics Center [NCGC]
NIH Molecular Libraries Probe Centers Network [MLPCN]
Assay Submitter (PI): Shyam Biswal, Johns Hopkins University
[1] Shibata T., et al., Genetic alteration of Keap1 confers constitutive Nrf2 activation and resistance to chemotherapy in gallbladder cancer. Gastroenterology, 2008.
[2] Sjoblom T., et al., The consensus coding sequences of human breast and colorectal cancers. Science, 2006.
Five uL of cell suspension was dispensed into 1536-well white TC-treated plate using the Kalypsys dispenser to achieve a density of 5000 cells/well in all columns except column 1. The plates were incubated at 37deg C at 5% CO2 for 2 hours before 23 nL of compounds were added with the Kalypsys pin tool equipped with a 1,536-pin array. The control compounds Budesonide and Staurosporine were added at a concentration of 2mM. Budesonide was also added as a 1:10 titration, starting at 200uM, to achieve the dose-response control signal. The plates were incubated for 18-24 hour at 37deg C, 5% CO2 followed by a 5ul addition of 5% FBS OPTI-MEM growing media in column 1 as negative control. One microliter of 5x CellTiter Fluor (Promega) was added to each well and the assay plates were incubated at 37deg C, 5% CO2 for 30 minutes. The fluorescence signal was read using the PerkinElmer ViewLux plate reader (Ex = 405 nm /Em = 525 nm) for a 3 second exposure. After the signal was taken, 3 uL of 3x BugLite was dispensed into all wells. The plates were then incubated at room temperature for 15 minutes. A second ViewLux read (40 sec exposure) was performed to detect the luminescence signal. Cytotoxicity was assessed through the first fluorescent read while biochemical activity against Nrf2 was measured in the luminescent read. The data was normalized to the positive and negative controls.
Potency means the concentration at half of the fitted maximal effect; tags describe the fitted curve by direction and shape.

Compound	Potency
N#Cc1cc2c(nc1SCC(=O)Nc1ccc(Cl)c(C(F)(F)F)c1)C1CCN2CC1	inactive
CC(C)(O)/C=C/C(=O)[C@](C)(O)C1[C@H](O)C[C@@]2(C)C3CC=C4C(C[C@H](O)[C@@H](O)C4(C)C)[C@]3(C)C(=O)C[C@]12C (some centres undefined)	inconclusive: 1460 nM [inhibitor, full curve]
CC(C)(C)c1cc(C=C(C#N)C#N)cc(C(C)(C)C)c1O	inconclusive: 1640 nM [inhibitor, full curve]
C[C@@H]1O[C@@H](O[C@H]2C[C@@H](O)[C@]3(CO)[C@@H]4C(CC[C@]3(O)C2)[C@@]2(O)CC[C@H](C3COC(=O)C3)[C@@]2(C)C[C@H]4O)[C@H](O)[C@H](O)[C@H]1O (some centres undefined)	inconclusive: 2060 nM [inhibitor, full curve]
CN(C)c1ccc(-[n+]2c(-c3ccccc3)cc(-c3ccccc3)cc2-c2ccccc2)cc1	inconclusive: 2910 nM [inhibitor, full curve]
C[C@]12CC[C@H](O)C[C@H]1CC[C@@H]1[C@@H]2CC[C@]2(C)[C@@H](C3=CC(=O)OC3)CC[C@]12O	inconclusive: 366 nM [inhibitor, full curve]
C[C@@H]1O[C@@H](O[C@@H]2C=C3CC[C@@H]4[C@@H](CC[C@]5(C)[C@H](c6ccc(=O)oc6)CC[C@@]45O)[C@@]3(C)CC2)[C@H](O)[C@H](O)[C@H]1O	inconclusive: 13 nM [inhibitor, full curve]
COc1ccc(CC2C(=O)NC(C)C(=O)N(C)C3C(=O)N(C)C(Cc4ccc(O)c(c4)Oc4ccc(cc4)C3O)C(=O)NC(C)C(=O)NC(C)C(=O)N2C)cc1 (centres undefined)	inconclusive: 82 nM [inhibitor, full curve]
CC12CCC(O)CC1CCC1C2CCC2(C)C(C3=CC(=O)OC3)CCC12O (centres undefined)	inconclusive: 820 nM [inhibitor, full curve]
COc1cc2cc(C(=O)N3CC(COS(C)(=O)=O)c4ccc(O)cc43)[nH]c2c(OC)c1OC (centres undefined)	inconclusive: 92 nM [inhibitor, full curve, poor fit]
CC12CCC3C(CCC4(O)CC(O)CCC34C=NO)C1(O)CCC2C1=COC(=O)C1 (centres undefined)	inconclusive: 164 nM [inhibitor, full curve]
CCOc1ccc(-c2c(C)n(-c3ccc(OCC)cc3)c3[n+]2CCCCC3)cc1	inconclusive: 5170 nM [inhibitor, partial curve]
CCCCNS(=O)(=O)c1ccc(OCC(=O)N2CCN(Cc3ccc4c(c3)OCO4)CC2)cc1	inactive
CC1=CC(C)CC(C)OC(=O)CC(c2ccc(O)cc2)NC(=O)C(Cc2c(Br)[nH]c3ccccc23)N(C)C(=O)C(C)NC(=O)C(C)C1 (centres undefined)	inconclusive: 580 nM [inhibitor, full curve]

Reference: PubChem BioAssay AID720523 (National Center for Advancing Translational Sciences (NCATS), 2013)
